Data from paper PMC4336329 (PLoS ONE, 2015).
Among all 310,000 compounds or so, about 2,200 (0.71%) showed an effect of 50% or more. Effects have a minus sign here. The list shows a part of the results.

target: human ether-à-go-go-related gene (hERG) potassium channel (human, UniProt Q12809); assay: primary screen, population patch clamp on CHO cells stably expressing hERG
Sequence (Q12809 whole entry, looked up): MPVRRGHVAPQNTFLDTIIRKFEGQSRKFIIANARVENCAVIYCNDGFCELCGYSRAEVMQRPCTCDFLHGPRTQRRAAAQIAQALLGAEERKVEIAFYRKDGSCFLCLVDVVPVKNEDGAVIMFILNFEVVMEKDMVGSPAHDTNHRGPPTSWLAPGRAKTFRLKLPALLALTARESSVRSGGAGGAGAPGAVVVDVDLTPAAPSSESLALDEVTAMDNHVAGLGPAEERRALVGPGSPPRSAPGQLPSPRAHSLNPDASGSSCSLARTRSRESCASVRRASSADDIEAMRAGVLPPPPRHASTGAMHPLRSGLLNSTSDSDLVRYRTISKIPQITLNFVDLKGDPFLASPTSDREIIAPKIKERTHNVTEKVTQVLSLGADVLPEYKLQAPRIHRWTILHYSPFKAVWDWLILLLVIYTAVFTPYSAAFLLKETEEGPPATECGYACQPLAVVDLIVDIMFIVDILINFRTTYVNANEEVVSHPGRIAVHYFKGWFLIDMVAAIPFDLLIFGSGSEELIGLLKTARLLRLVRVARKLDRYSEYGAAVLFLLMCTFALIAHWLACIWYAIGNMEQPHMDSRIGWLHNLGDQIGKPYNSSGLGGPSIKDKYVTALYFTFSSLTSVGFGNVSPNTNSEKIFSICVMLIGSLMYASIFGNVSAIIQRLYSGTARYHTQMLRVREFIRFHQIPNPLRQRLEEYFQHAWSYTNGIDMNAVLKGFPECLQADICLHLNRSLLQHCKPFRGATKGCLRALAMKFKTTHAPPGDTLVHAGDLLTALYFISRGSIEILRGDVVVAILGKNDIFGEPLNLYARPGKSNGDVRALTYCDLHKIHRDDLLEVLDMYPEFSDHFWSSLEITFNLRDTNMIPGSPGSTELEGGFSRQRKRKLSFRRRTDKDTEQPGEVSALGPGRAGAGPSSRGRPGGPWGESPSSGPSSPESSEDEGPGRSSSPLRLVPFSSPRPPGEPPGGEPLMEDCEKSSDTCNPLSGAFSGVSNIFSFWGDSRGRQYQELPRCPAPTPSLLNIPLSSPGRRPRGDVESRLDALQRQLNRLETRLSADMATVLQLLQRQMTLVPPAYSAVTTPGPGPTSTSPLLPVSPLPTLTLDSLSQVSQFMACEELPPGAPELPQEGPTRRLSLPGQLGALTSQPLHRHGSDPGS

| SMILES | hERG current change (%, negative = inhibition) at 1uM [%] |
| --- | --- |
| O=C(Nc1c(C(=O)N2CCCCC2)cnn1-c1ccccc1)c1ccccc1F | 10.2 |
| Cc1cc(NS(=O)(=O)c2ccc(NC(=O)c3ccc(Br)o3)cc2)nc(C)n1 | 17 |
| CCn1c(Cn2nnc(-c3ccccc3)n2)nnc1SCC(=O)Nc1ccc(N(C)C)cc1 | 20.6 |
| O=C(c1ccco1)N1CCN(C(=O)N2c3ccccc3Sc3ccccc32)CC1 | -2.52 |
| CCCCS(=O)(=O)/C=C\C1C2C=CC(C2)C1S(=O)(=O)CCCC (centres unmarked) | 3.31 |
| CC1CCc2nc(NC(=O)C3CCCO3)sc2C1 (centres unmarked) | 2.12 |
| O=C(CNC(=O)c1ccc(Br)o1)NNC(=O)c1ccccc1O | 3.31 |
| Cc1ccccc1NC(=O)Cn1cccc1 | -3.27 |
| COc1ccc(/C=C(/NC(=O)c2ccc(OC)cc2)C(=O)NCCc2c[nH]c3ccccc23)cc1 | -1.5 |
| CSc1nnc(Cc2sc(-c3ccccc3)nc2-c2ccccc2)o1 | 12.1 |
| O=C1OCCC1Sc1nnc(-c2ccco2)n1-c1ccccc1 (centres unmarked) | 14 |
| CC(C)(C)C(=O)NCCN1CCN(C(=O)C(C)(C)C)CC1 | 3.83 |
| CCN(CC)CCNC(=O)c1cc(-c2ccc(Br)s2)nc2ccccc12 | 11.7 |
| COC(=O)c1[nH]c2ccc(F)cc2c1NS(=O)(=O)c1ccc(F)c(C)c1 | 2.13 |
| COc1ccccc1C(=O)NC(C)c1nc2ccccc2[nH]1 (centres unmarked) | 22.4 |
| O=C1Nc2ccccc2OC1CC(=O)N1CCN(c2cccc(C(F)(F)F)c2)CC1 (centres unmarked) | -9.68 |
| CC(NC(=O)C(NS(=O)(=O)c1cccs1)C(C)C)c1ccc(S(N)(=O)=O)cc1 (centres unmarked) | 9.56 |
| Cc1ccc(NC2c3ccccc3C(=O)N2c2cccnc2)cc1 (centres unmarked) | 9.03 |
| Cc1ccnc(NC(=O)/C=C/c2ccccc2Cl)c1 | -3.23 |
| O=C(NCC1COc2ccccc2O1)c1cn(Cc2ccc(F)cc2)nn1 (centres unmarked) | -2.3 |
| COCCCNC(=O)c1c(N)n(/N=C/c2cccnc2)c2nc3ccccc3nc12 | 12.5 |
| Cc1sc2nc(CN(C(=O)c3cccs3)C3CCCC3)[nH]c(=O)c2c1C | 12.7 |
| O=C1c2ccccc2C(=O)C1(O)O | 18 |

| SMILES | hERG current change (%, negative = inhibition) at 1uM [%] |
| --- | --- |
| N#Cc1ccc(NC(=O)c2cc(S(=O)(=O)N3CCOCC3)ccc2N2CCCC2)cc1 | -58.9 |
| O=C(COc1ccc(Cl)cc1Cl)NNC(=S)NCc1ccco1 | 13.1 |
| Cc1ccc(C)c(N(CC(=O)NC2CCCC2)C(=O)c2csnn2)c1 | 10.9 |
| CC(OC(=O)Cc1n[nH]c(=O)c2ccccc12)C(=O)Nc1ccc(Cl)cn1 (centres unmarked) | 0.491 |
| Cc1ccc(Nc2nc(CSc3nnnn3C)cs2)cc1 | 1.3 |
| CN(C)S(=O)(=O)c1ccc(Cl)c(C(=O)Nc2cccc3ncccc23)c1 | 12.2 |
| COc1cc(OC)cc(C(=O)NCCSC2CCCCC2)c1 | 11.3 |
| O=C(c1cnccn1)N1CCc2ccccc2C1 | 6.48 |
| O=C(NS(=O)(=O)c1ccccc1)c1ccccc1O | 0.636 |
| CN(C(=O)COc1ccc(-c2nnco2)cc1)C1CCS(=O)(=O)C1 (centres unmarked) | -0.758 |
| COc1ccc(N2CC(C(=O)NC3CC(C)(C)NC(C)(C)C3)CC2=O)cc1 (centres unmarked) | 0.081 |
| CCN(CC)S(=O)(=O)c1ccc(Cl)c(NC(=O)COC(=O)C2CCCCC2)c1 | 3.05 |
| CS(=O)(=O)Nc1cccc(C2=NN(C(=O)c3ccc(F)cc3)C(c3cccs3)C2)c1 (centres unmarked) | 10.2 |
| O=C(/C=C/NNC(=O)c1ccccc1)c1ccccc1 | 2.02 |
| Cc1ccc(C2CC(c3ccco3)=NN2S(C)(=O)=O)cc1 (centres unmarked) | 10.5 |
| COC(=O)c1cccc(CN2C(=O)SC(Nc3ccc(C)cc3)C2=O)c1 (centres unmarked) | 12.6 |
| CN(CC(=O)NC1CCN(Cc2ccccc2)CC1)S(=O)(=O)c1ccc(Cl)s1 | -13.6 |
| CCOc1ncccc1C(=O)Nc1cc(S(=O)(=O)N2CCCCC2)ccc1Cl | 23.2 |
| O=C(NCc1ccc2c(c1)OCO2)c1n[nH]c(=O)c2ccccc12 | 15.4 |
| COc1ccc(-c2noc(=O)n2Cc2cc(C)ccc2C)cc1 | 4.48 |
| O=C(COC(=O)Cc1ccsc1)Nc1ccccc1 | -0.148 |
| COc1ccc(-n2nc3c(c2NC(=O)CCCCl)CSC3)cc1 | 11.8 |
| Cc1ccc(S(=O)(=O)N2CC(O)CC2C(=O)OCc2nc3sc(C)c(C)c3c(=O)[nH]2)cc1 (centres unmarked) | 12.6 |

| SMILES | hERG current change (%, negative = inhibition) at 1uM [%] |
| --- | --- |
| O=[N+]([O-])c1ccccc1S(=O)(=O)Nc1ccc(-c2ccc3nncn3n2)cc1 | -16.1 |
| COc1ccc(C)cc1Nc1nc(-c2c[nH]c3ccccc23)cs1 | 6.9 |
| COc1cccc(NC(=S)NCc2ccccn2)c1 | 11.4 |
| CCN1CCN(c2ccc(S(=O)(=O)N3CCCCC3)cc2NC(=O)/C=C/c2cc(OC)ccc2OC)CC1 | -1.04 |
| c1ccc2nc3c(nc2c1)c1ccccc1n3CCN1CCOCC1 | -13.8 |
| Cc1cc(/C=N/NC(=O)c2c(Br)cnn2C)c(C)n1-c1cccc(Br)c1 | 15.9 |
| Cc1cc(NC(=O)CSc2nnc(C(C)N(C)C)n2Cc2ccccc2)no1 (centres unmarked) | 17.4 |
| S=C(NCCC1=CCCCC1)Nc1ccccc1 | 11.7 |
| Cc1ccc(C)c(NC(=S)N2CCN(c3ccccn3)CC2)c1 | 17.1 |
| CCOc1ccccc1NC(=O)CN1CCN(C(=O)C2CCCO2)CC1 (centres unmarked) | 10.4 |
| N#Cc1sc(NCc2ccccc2)nc1Cl | 2.35 |
| O=C(CCC(=O)Nc1cccnc1)Nc1cccnc1 | 15.2 |
| CCOC(=O)C1C(=O)NC(c2ccccc2)=NC1c1ccc(Br)cc1 (centres unmarked) | 10.3 |
| CC(=O)/C=C\c1ccccc1OC(=O)c1cc2ccccc2oc1=O | 16.3 |
| O=Cc1cn(CCC(=O)O)nc1-c1cccc(Cl)c1 | 5.84 |
| Cn1cc(Br)c(C(=O)NNC(=O)c2ccc(Br)cc2)n1 | 11.5 |
| Cn1nnnc1SCC(=O)Nc1ccccc1Cl | 11.4 |
| O=C(C[n+]1ccccc1)N/N=C/c1ccccc1[N+](=O)[O-].[Cl-] | 31.2 |
| C=C1CCC(O)C2(C)CCC3C(C)C(=O)OC3C12O (centres unmarked) | 11.3 |
| Cc1cc(NC(=O)CCc2ccc(S(=O)(=O)N3CCOCC3)cc2)n(-c2ccccc2)n1 | -7.66 |
| COc1ccc(NC(=O)Cc2c[nH]c3ccccc23)cc1S(=O)(=O)N1CCOCC1 | 6.21 |
| COc1cc(OC)cc(C(=O)NC(=S)N2C[C@H]3C[C@H](C2)c2cccc(=O)n2C3)c1 | 13.9 |
| COc1ccc(NC2CCCN(C(=O)c3csc(C(C)C)n3)C2)cc1 (centres unmarked) | 13.5 |

| SMILES | hERG current change (%, negative = inhibition) at 1uM [%] |
| --- | --- |
| NS(=O)(=O)c1ccc(CCNS(=O)(=O)c2cccc(C(=O)O)c2)cc1 | 14.6 |
| CCOc1ccc(-n2ccnc(SCC(=O)Nc3cccc(OC)c3)c2=O)cc1 | 5 |
| O=C(OCc1nnc(-c2ccccc2)o1)c1ccc([N+](=O)[O-])o1 | 16.5 |
| CCC(=O)Nc1nc2ccc(NC(=O)COc3ccccc3)cc2s1 | 21.3 |
| COc1ccc(/C=N/N=C/c2c[nH]c(=O)c(C#N)c2Nc2ccccc2)cc1 | 18.5 |
| NC(=S)NNC(=O)c1ccccc1Cl | 11.1 |
| CCn1c(SCC(=O)Nc2ccc3c(c2)OCCO3)nnc1-c1ccccn1 | -1.16 |
| COC(=O)[C@@H]1[C@@H](C#N)C2(c3ccccc3-c3ccccc32)N(c2ccc(Cl)cc2)N1C#N | 10.7 |
| O=C(CCN1CCN(c2ccccc2)CC1)Nc1ccc(OCc2ccccc2)cc1 | 6.26 |
| CC(C)c1cc(C(=O)N2CCCC(Nc3ccc(F)cc3)C2)nc(N)n1 (centres unmarked) | 12.7 |
| Cc1ccc(S(=O)(=O)N2CCc3ccccc3C2)cc1C | 14.3 |
| Cc1ccc(-c2nc3ccccc3c(=O)n2-c2cccc(C)n2)cc1 | 8.53 |
| CCOC(=O)c1c(S(=O)(=O)N2CCN(C3CCCCC3)CC2)c(C)n(C)c1C | -8.5 |
| Cc1ccc(NC(=O)C2CCN(S(=O)(=O)c3c(C)[nH]c(=O)[nH]c3=O)CC2)cc1 | 10.7 |
| Cc1nn(Cc2ccc(F)cc2)c(C)c1NC(=O)C1c2ccccc2Oc2ccccc21 | 15.3 |
| C=CCN1C(=O)C(CC(=O)O)SC1=Nc1cccc([N+](=O)[O-])c1 (centres unmarked) | 8.2 |
| COC(=O)c1nn(-c2ccccc2)c(=O)cc1Sc1ccc(Cl)cc1 | 14.8 |
| Cc1cccc(NC(=O)NCc2ccc3c(c2)OCO3)c1C | 13.2 |
| COCCCNC(=O)C(=O)Nc1cc2c3c(c1)CCC(=O)N3CCC2 | 15.9 |
| COC(=O)c1ccc(/C=C(\C#N)c2ccccn2)cc1 | 12.6 |
